In the supplement of paper PMC10126150:
Values marked as one replicate rest on one cluster of the flow cell; about a third of the high ones do not repeat.

Test system: ATP
Assay: switch fluorescence ratio, 500 uM ATP over buffer (Cy3 cluster intensity, sum of 5 cycles each) (fold (ratio)); higher = stronger signal-on switching upon ATP binding; sequences stand for … in TCGTCGGCAGCGTCAGATGTGTATAAGAGACAGTTTTTTTTTTTTTTTTTTTTTTTTT…TC
Settings: aptamer strand: ATP DNA aptamer (quencher-CACCTGGGGGAGTATTGCGGAGGAAGG + anchor), 100 nM annealed; ATP concentration: 500 uM; one replicate
Summary of the method: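 Clusters carrying Cy3-labelled switching strands on a modified Illumina MiSeq flow-cell were annealed to 100 nM quencher-labelled ATP aptamer and imaged in selection buffer. They were imaged again after 15 min with 500 uM ATP at 22 °C, over five buffer/ATP cycles with NaOH stripping and re-annealing in between. For each cluster, the fluorescence ratio is the summed Cy3 intensity of the target cycles divided by that of the buffer cycles, averaged per switch-domain sequence. Clusters outside 100-1000 RFU were left out.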
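Also: ATP exposure 15 min at 22 °C before imaging.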

Row | Sequence | switch fluorescence ratio
1 | CATATATGGA | 1.01
2 | CATATATTCA | 1.03
3 | CATATCGTGT | 0.973
4 | CATATGCCAC | 1.05
5 | CATATGGCAT | 0.986
6 | CATATGTGCT | 1.02
7 | CATATTGGA | 1.02
8 | CATATTTAAA | 0.978
9 | CATCAACACG | 1
10 | CATCAAGTT | 1.04
11 | CATCATGCCC | 1.15
12 | CATCATGGGA | 1.03
13 | CATCCATAAT | 1.29
14 | CATCCGCGCT | 2.6
15 | CATCCTGGCA | 1.46
16 | CATCGACTTT | 1.01
17 | CATCGGCCGG | 1
18 | CATCGGGGCT | 1
19 | CATCGTACGA | 1.05
20 | CATCGTATTT | 0.999
21 | CATCGTGGCC | 1
22 | CATCTAAATC | 2.06

Row | Sequence | switch fluorescence ratio
23 | CATCTAACGG | 1.05
24 | CATCTACAT | 1.06
25 | CATCTACGCC | 1.26
26 | CATCTCAGGA | 0.985
27 | CATCTCCCAT | 1.07
28 | CATCTCGT | 1.01
29 | CATCTGCAGG | 1.99
30 | CATCTGCTTA | 1.69
31 | CATCTGGCCT | 1.54
32 | CATCTGTCC | 1.1
33 | CATCTTAGAA | 0.977
34 | CATGAACGAG | 0.999
35 | CATGAACTTT | 1.05
36 | CATGACGGGA | 1.06
37 | CATGAGAGCC | 1.01
38 | CATGAGCACA | 1.1
39 | CATGAGCTCA | 1.04
40 | CATGAGGTCC | 1.12
41 | CATGAGTCAG | 0.927
42 | CATGCGAGTA | 0.981
43 | CATGCGTGGT | 1.01
44 | CATGCTAGCT | 0.997

Row | Sequence | switch fluorescence ratio
45 | CATGCTGAGC | 0.996
46 | CATGCTTGC | 1.02
47 | CATGCTTTTT | 0.967
48 | CATGGACACT | 1
49 | CATGGCAGAC | 2.1
50 | CATGGCATGG | 0.986
51 | CATGGCGCCA | 1.01
52 | CATGGCGGTT | 0.987
53 | CATGGGTTCA | 1.02
54 | CATGGTTTAG | 0.954
55 | CATGGTTTCC | 0.995
56 | CATGTATGAT | 1.03
57 | CATGTCACGT | 1.03
58 | CATGTCCAAA | 1
59 | CATGTCGTT | 1.02
60 | CATGTCTGAT | 0.941
61 | CATGTGACTT | 0.964
62 | CATGTGCTAA | 1.01
63 | CATGTGGCAC | 0.964
64 | CATGTGGGTT | 0.993
65 | CATGTGTGCT | 0.968
66 | CATGTTAACA | 0.974

Row | Sequence | switch fluorescence ratio
67 | CATGTTAGGA | 1.02
68 | CATGTTCGGT | 0.966
69 | CATGTTCTGG | 0.951
70 | CATGTTGAGG | 0.974
71 | CATGTTGCTA | 0.989
72 | CATTAACCAG | 1.01
73 | CATTAATGCA | 1.03
74 | CATTAGAAAG | 0.984
75 | CATTATAGTT | 0.971
76 | CATTATTCCA | 0.987
77 | CATTATTCGT | 0.978
78 | CATTATTCTA | 0.993
79 | CATTCAAGAA | 1
80 | CATTCACCAG | 1.11
81 | CATTCACGCA | 1.43
82 | CATTCAGCCC | 1.02
83 | CATTCCAGTA | 0.993
84 | CATTCGTCTG | 1.06
85 | CATTCTAGGG | 0.999
